Laboratory results published in publication PMC12820563.
The list shows a part of the results. The list includes weakly bound sequences.

Each sequence was assayed against T1, MBP-FoxP3dN (UniProt Q99JB6) (assay: PD-seq (MBP pull-down with sequencing)). Settings: 20 mM Tris-HCl pH 7.5, 100 mM NaCl, 1.5 mM MgCl2, 0.4 uM protein, 0.1 uM dsDNA library, 30 min, room temperature, amylose pull-down; high values mean tight binding; double strand, one strand shown.
T1 sequence: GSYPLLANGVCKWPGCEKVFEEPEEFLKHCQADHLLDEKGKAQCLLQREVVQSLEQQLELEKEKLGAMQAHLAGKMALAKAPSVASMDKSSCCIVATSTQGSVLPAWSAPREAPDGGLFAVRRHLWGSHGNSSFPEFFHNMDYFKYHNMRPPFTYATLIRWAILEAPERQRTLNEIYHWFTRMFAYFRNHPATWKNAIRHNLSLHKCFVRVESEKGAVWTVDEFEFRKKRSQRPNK

| Sequence | binding signal (RPM ratio (pull-down/input)) |
| --- | --- |
| GATGATTGTTCTCCCAGCTGATGAATTTTCTTAGTCGAGTAAACAAATTTTCCTAATCTTTCTGTTCAAGCGCCATCTAC | 0.314 |
| GATGATTGTTCTCCCAGCTGATGAATTTCGCGTATCGAGTAAACAAATTTTCCTAATCTTTCTGTTCAAGCGCCATCTAC | 1.43 |
| GATGATTGTTCTCCCAGCTGATGAATTTAAGTTGTCGAGTAAACAAATTTTCCTAATCTTTCTGTTCAAGCGCCATCTAC | 1.12 |
| GATGATTGTTCTCCCAGCTGATGAATTTGCGAAATCGAGTAAACAAATTTTCCTAATCTTTCTGTTCAAGCGCCATCTAC | 0.546 |
| GATGATTGTTCTCCCAGCTGATGAATTGTAACGATCGAGTAAACAAATTTTCCTAATCTTTCTGTTCAAGCGCCATCTAC | 0.496 |
| GATGATTGTTCTCCCAGCTGATGAATTAGGAAGTTCGAGTAAACAAATTTTCCTAATCTTTCTGTTCAAGCGCCATCTAC | 0.288 |
| GATGATTGTTCTCCCAGCTGATGAATTATGCCCCTCGAGTAAACAAATTTTCCTAATCTTTCTGTTCAAGCGCCATCTAC | 2.3 |
| GATGATTGTTCTCCCAGCTGATGAATTCTCCCCATCGAGTAAACAAATTTTCCTAATCTTTCTGTTCAAGCGCCATCTAC | 0.26 |
| GATGATTGTTCTCCCAGCTGATGAATTACATATATCGAGTAAACAAATTTTCCTAATCTTTCTGTTCAAGCGCCATCTAC | 0.842 |
| GATGATTGTTCTCCCAGCTGATGAATTTGTAGTATCGAGTAAACAAATTTTCCTAATCTTTCTGTTCAAGCGCCATCTAC | 5.7 |
| GATGATTGTTCTCCCAGCTGATGAATTTAACAGGTCGAGTAAACAAATTTTCCTAATCTTTCTGTTCAAGCGCCATCTAC | 0.231 |
| GATGATTGTTCTCCCAGCTGATGAATTAGGTAGCTCGAGTAAACAAATTTTCCTAATCTTTCTGTTCAAGCGCCATCTAC | 0.601 |
| GATGATTGTTCTCCCAGCTGATGAATTGTCCGTTTCGAGTAAACAAATTTTCCTAATCTTTCTGTTCAAGCGCCATCTAC | 0.359 |
| GATGATTGTTCTCCCAGCTGATGAATTGATTCTATCGAGTAAACAAATTTTCCTAATCTTTCTGTTCAAGCGCCATCTAC | 0.401 |
| GATGATTGTTCTCCCAGCTGATGAATTAGTCCATTCGAGTAAACAAATTTTCCTAATCTTTCTGTTCAAGCGCCATCTAC | 0.564 |
| GATGATTGTTCTCCCAGCTGATGAATTCTTCCTCTCGAGTAAACAAATTTTCCTAATCTTTCTGTTCAAGCGCCATCTAC | 0.204 |
| GATGATTGTTCTCCCAGCTGATGAATTCGCGCTGTCGAGTAAACAAATTTTCCTAATCTTTCTGTTCAAGCGCCATCTAC | 0.479 |
| GATGATTGTTCTCCCAGCTGATGAATTCTGCAAGTCGAGTAAACAAATTTTCCTAATCTTTCTGTTCAAGCGCCATCTAC | 2.6 |
